Experimental data from the antibiotic and cytotoxicity screens of Wong et al. (2023).
Some of the results follow.

Columns and labels:
HSkMC = human skeletal muscle cells; experiment: cytotoxicity call (relative viability < 0.9); conditions: 10 µM
HepG2 = experiment: cytotoxicity call (relative viability < 0.9); conditions: 10 µM
S. aureus RN4220 = experiment: growth inhibition call (relative growth <= 0.2); conditions: 50 µM

| SMILES | cytotoxicity call (HSkMC) | cytotoxicity call (HepG2) | growth inhibition call (S. aureus RN4220) |
| --- | --- | --- | --- |
| CO[C@@H]1CN(C)C(=O)c2cc(NS(=O)(=O)c3ccccc3C)ccc2OC[C@@H](C)N(S(C)(=O)=O)C[C@H]1C | inactive | inactive | inactive |
| COc1ccccc1CNC(=O)C[C@@H]1CC[C@H]2[C@@H](COC[C@@H](O)CN2C(=O)Nc2ccc(F)cc2)O1 | inactive | inactive | inactive |
| C[C@H](CO)N1C[C@H](C)[C@@H](CN(C)Cc2ccc(Oc3ccccc3)cc2)Oc2ccc(NC(=O)Nc3ccccc3)cc2C1=O | inactive | active | inactive |
| C[C@H](CO)N1C[C@H](C)[C@H](CN(C)C(=O)Nc2cccc3ccccc23)Oc2c(NC(=O)Nc3ccc4c(c3)OCO4)cccc2C1=O | inactive | inactive | inactive |
| COc1ccc(NC(=O)Nc2ccc3c(c2)C(=O)N([C@H](C)CO)C[C@H](C)[C@@H](CN(C)C(=O)Nc2ccc(OC)cc2)OCCCC[C@H](C)O3)cc1 | inactive | inactive | inactive |
| CCC(=O)NCc1nn(C)c2c1COCC2 | inactive | inactive | inactive |
| Cc1ccc(S(=O)(=O)Nc2ccc3c(c2)CC(=O)N([C@@H](C)CO)C[C@@H](C)[C@H](CN(C)Cc2ccc(Oc4ccccc4)cc2)O3)cc1 | inactive | inactive | inactive |
| CC1(C)OC2CC3C4CCC5=CC(=O)CCC5(C)C4(F)C(O)CC3(C)C2(C(=O)CCl)O1 (stereo not given) | inactive | inactive | inactive |
| Nc1ncnc2c1ncn2[C@H]1O[C@@H](COP(=O)(O)OP(=O)(O)OP(=O)(O)O)[C@@H](O)[C@@H]1O | inactive | inactive | inactive |
| C[C@@H]1CN([C@H](C)CO)C(=O)c2cccc(NC(=O)Nc3ccccc3)c2O[C@H]1CN(C)Cc1ccc(Cl)c(Cl)c1 | inactive | inactive | inactive |
| COc1ccc2c3c(n(c2c1)C)[C@@H](CO)N(Cc1cc(cc(c1)OC)OC)C[C@]13CCN(CC1)C(=O)CN1CCOCC1 | inactive | inactive | inactive |
| C[C@H]1CN([C@@H](C)CO)C(=O)CCCn2nncc2CO[C@@H]1CN(C)S(=O)(=O)c1ccc(-n2cccn2)cc1 | inactive | inactive | inactive |
| CN(C)c1cc(NC(=O)CNC(C)(C)C)c(O)c2c1C[C@H]1C[C@H]3[C@H](N(C)C)C(=O)[C@@H](C(N)=O)C(=O)[C@@]3(O)C(=O)[C@H]1C2=O | inactive | inactive | inactive |
| [O-][NH2+]N(O)c1ccccc1 | inactive | inactive | inactive |
| C/C=C/c1ccc2c(c1)O[C@@H](CN(C)Cc1ccc(C(=O)O)cc1)[C@@H](C)CN([C@H](C)CO)S2(=O)=O | inactive | inactive | inactive |
| C/C=C1/[C@H](O[C@@H]2O[C@H](CO)[C@@H](O)[C@H](O)[C@H]2O)OC=C(C(=O)OC)[C@H]1CC(=O)OCCc1ccc(O)c(O)c1 | inactive | inactive | inactive |
| Cn1cnc(S(=O)(=O)N2C[C@@H](O)COC[C@H]3O[C@H](CC(=O)N4CCN(c5ccccc5)CC4)CC[C@@H]32)c1 | inactive | inactive | inactive |
| O=C(CSc1nnc(-c2ccccc2)n1C1CCCCC1)Nc1ccc(S(=O)(=O)Nc2ccccn2)cc1 | inactive | inactive | inactive |
| C[C@H](CO)N1C[C@H](C)[C@H](CN(C)Cc2ccc(Oc3ccccc3)cc2)Oc2c(NC(=O)Nc3ccc(F)cc3)cccc2C1=O | inactive | inactive | inactive |
| COc1ccc(C#Cc2ccc3c(c2)O[C@H](CN(C)C(=O)CN2CCOCC2)[C@H](C)CN([C@@H](C)CO)S3(=O)=O)cc1 | inactive | inactive | inactive |
| COc1cccc(NC(=O)N(C)C[C@@H]2OCc3ccccc3-c3c(n(C)c4ccccc34)C(=O)N([C@@H](C)CO)C[C@@H]2C)c1 | inactive | inactive | inactive |
| C[C@@H]1CCCCO[C@H](CN(C)C(=O)Nc2ccc(F)cc2)[C@@H](C)CN([C@H](C)CO)C(=O)c2cc(NS(=O)(=O)c3ccccc3)ccc2O1 | inactive | inactive | inactive |
| CC(C(=O)O)c1cccc(Oc2ccccc2)c1 (stereo not given) | inactive | inactive | inactive |
| O=[N+]([O-])c1ccc(O)c2ncccc12 | inactive | active | inactive |
| CN1CC2(COC2)OCCS1(=O)=O | inactive | inactive | inactive |
| C[C@]12C=CC(=O)N[C@@H]1CC[C@@H]1[C@@H]2CC[C@]2(C)[C@@H](C(=O)Nc3cc(C(F)(F)F)ccc3C(F)(F)F)CC[C@@H]12 | inactive | inactive | inactive |
| C[C@@H]1CCCCO[C@@H](CN(C)Cc2ccc(Cl)c(Cl)c2)[C@H](C)CN([C@H](C)CO)C(=O)c2cc(NC(=O)Nc3cccc4ccccc34)ccc2O1 | inactive | inactive | inactive |
| Cc1ccc(S(=O)(=O)Nc2ccc3c(c2)C(=O)N([C@H](C)CO)C[C@@H](C)[C@H](CN(C)Cc2ccc(C(F)(F)F)cc2)OCCCC[C@H](C)O3)cc1 | active | active | inactive |
| C[C@H](CO)N1C[C@H](C)[C@H](CN(C)S(=O)(=O)c2cn(C)cn2)Oc2ccc(NC(=O)CCCCCC(=O)Nc3ccccc3N)cc2C1=O | inactive | inactive | inactive |
| Cc1ccc(S(=O)(=O)N(C)C[C@@H]2OCCCC[C@H](C)Oc3ccc(NS(=O)(=O)c4ccc(F)cc4)cc3C(=O)N([C@@H](C)CO)C[C@@H]2C)cc1 | inactive | active | inactive |
